In all, about 390,000 compounds went through this assay and about 4,000 (1%) were called active. The inconclusive results got no clear call from the source; some entries with a clear call stand among them for comparison. Calls come from the whole dose curve; as a rule, active = well fitted inhibition curve with a large enough effect; inconclusive = small, poorly fitted or top-dose-only effect; inactive = no such curve, though single readings can be large or run the other way. Where the call is inconclusive, the potency comes from a doubtful curve fit.
Each compound was assayed against Thioredoxin reductase 1, cytoplasmic (Rattus norvegicus) (UniProt O89049) (assay: qHTS Assay for Inhibitors of Mammalian Selenoprotein Thioredoxin Reductase 1 (TrxR1): qHTS). Conditions: recombinant rTrxR1, NADPH fluorescence consumption, selenite substrate; series mostly up to 114 µM; activity change, negative = inhibition: at the top concentration.
Summary of the method: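 Rat TrxR1 (90 nM in the dispensed reagent) was pre-reduced with 400 uM NADPH for 5 min at room temperature, then incubated with compound for 15 min. After 400 uM selenite was added, NADPH fluorescence (Ex 340/Em 450 nm) was followed for 8 min.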
% is set by controls: 0 for no effect and ±100 for the full control effect; potency is the fitted concentration of half-maximal effect; tags give direction and shape of the fitted curve.
Note: nearly all actives have a fitted effect of over 65% in size.

Chain of UniProt O89049 (O89049 whole entry, looked up): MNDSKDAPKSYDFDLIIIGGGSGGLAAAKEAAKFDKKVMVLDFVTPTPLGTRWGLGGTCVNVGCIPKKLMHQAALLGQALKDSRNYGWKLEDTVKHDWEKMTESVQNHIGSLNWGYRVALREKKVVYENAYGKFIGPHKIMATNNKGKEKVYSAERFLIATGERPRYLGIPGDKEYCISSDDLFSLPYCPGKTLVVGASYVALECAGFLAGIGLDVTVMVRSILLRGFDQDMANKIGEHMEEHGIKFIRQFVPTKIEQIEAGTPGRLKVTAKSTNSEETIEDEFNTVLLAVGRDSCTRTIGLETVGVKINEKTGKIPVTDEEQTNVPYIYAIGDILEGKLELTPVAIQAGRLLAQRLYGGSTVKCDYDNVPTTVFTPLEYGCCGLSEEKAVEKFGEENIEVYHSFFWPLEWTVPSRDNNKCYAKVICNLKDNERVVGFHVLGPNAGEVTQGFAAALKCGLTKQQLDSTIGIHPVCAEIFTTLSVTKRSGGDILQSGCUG

| Structure (SMILES) | activity change, negative = inhibition | Potency |
| --- | --- | --- |
| CCn1c(SC(=O)NC2CCCCC2)nnc1-c1cccs1 | inactive: -79.5% [at 57.1 µM] |  |
| O=C(CN1C(=O)S/C(=C\C=C\c2ccccc2)C1=O)NC1CCS(=O)(=O)C1 (stereo not given) |  | inconclusive: 35.5 µM [inhibitor, partial curve] |
| O=C(NC(=S)Nc1ccccc1Cl)C1CC1 |  | inconclusive: 56.2 µM [inhibitor, single point] |
| Cc1nnsc1C(=O)Oc1ccc(Cl)cc1 | inactive: 2.9% |  |
| CCN(CC)CCC(c1ccc(N(C)C)cc1)c1c(OC)cc(OC)c2c1OC(=O)CC2c1ccc(N(C)C)cc1 (stereo not given) |  | inconclusive: 39.8 µM [inhibitor, single point] |
| COc1ccc(N2CCN(CCCNC(=O)c3cnn(-c4ccc(C)cc4)c3-n3cccc3)CC2)cc1 |  | inconclusive: 7.08 µM [inhibitor, partial curve, poor fit] |
| CCN(CC)c1ccc(/C=C(\C#N)C(=O)c2ccc(Br)cc2)cc1 |  | inconclusive: 56.2 µM [inhibitor, single point] |
| O=C(NC(=S)Nc1ccc(N2CCOCC2)cc1)c1cccc(Cl)c1Cl |  | inconclusive: 56.2 µM [inhibitor, partial curve, poor fit] |
| COc1cc2nc(SCC(=O)Nc3ccccc3C)n3nc(CCn4c(C)nc5ccccc54)nc3c2cc1OC | inactive: -10.4% |  |
| Cc1cccc2sc(N(Cc3cccnc3)C(=O)CCOc3ccccc3)nc12 |  | inconclusive: 12.6 µM [inhibitor, partial curve, poor fit] |
| Oc1cc2ccccc2cc1-c1n[nH]c(=S)n1Cc1ccco1 |  | inconclusive: 3.98 µM [inhibitor, full curve, poor fit] |
| CC(=O)OCc1cc2cccc(C)c2[nH]c1=O | inactive: -8.94% |  |
| O=C(O)/C=C/C(=O)Nc1ccc2nccnc2c1 | inactive: 29.5% [at 57.1 µM] |  |
| C/C(=N\NC(=O)c1c(Cl)cnn1C)c1cccc(NC(=O)COc2ccccc2)c1 |  | inconclusive: 31.6 µM [inhibitor, partial curve] |
| Cc1ccccc1OCC(=O)Nc1ccc(-c2nc3cc(Cl)cc(Cl)c3o2)cc1 | inactive: 18.3% |  |
| CCCSc1ncc(Cl)c(C(=O)N(Cc2ccccc2)c2ccc(OC)cc2)n1 | inactive: 25.5% |  |
| C#CCOCCOCCOCCNc1nc(N2CCN(C(=O)[C@H](CO)n3cc([C@@H](N)C(C)C)nn3)CC2)nc(N2CCN(C(=O)[C@H](CCC(=O)O)n3cc([C@@H](N)CCCCN)nn3)CC2)n1 |  | inconclusive: 79.4 µM [inhibitor, single point] |
| Cc1onc(-c2ccccc2Cl)c1C(=O)NCc1ccco1 |  | active: 50.1 µM |
| CCCN(CC(=O)Nc1cc(Cl)ccc1Cl)C(=O)/C=C/c1ccco1 | inactive: -1.8% [at 57.1 µM] |  |
| CCN(CC)CCCN1C(=O)C(O)=C(C(=O)c2ccco2)C1c1ccc(C)o1 (stereo not given) |  | inconclusive: 12.6 µM [inhibitor, partial curve] |
| Oc1ccc(C(=S)N2CCCC2)cc1 | inactive: 13.2% |  |
| N=c1c2c(-c3ccccc3)c(-c3ccccc3)n(Cc3ccco3)c2ncn1CCN1CCOCC1 |  | inconclusive: 22.4 µM [inhibitor, partial curve] |
| Cc1cc(=O)oc2c(C(=O)/C=C/c3ccccc3)c(O)ccc12 | inactive: 3.71% [at 57.1 µM] |  |
| N=C1SC(c2ccccc2)C(=O)N1c1ncc(Cc2ccccc2)s1 (stereo not given) |  | inconclusive: 44.7 µM [inhibitor, partial curve] |

| Structure (SMILES) | activity change, negative = inhibition | Potency |
| --- | --- | --- |
| CN(C(=O)c1cc2c(=O)n3ccccc3nc2s1)C1CCCCC1 |  | inconclusive: 89.1 µM [inhibitor, single point] |
| COc1ccc(S(=O)(=O)N2CCN(CC(=O)c3ccc(O)c(O)c3)CC2)cc1 |  | inconclusive: 17.8 µM [inhibitor, full curve] |
| C[n+]1c(/C=C/c2ccnc3ccccc23)cc(/C=C/c2ccnc3ccccc23)c2ccccc21 |  | inconclusive: 50.1 µM [inhibitor, partial curve, poor fit] |
| COc1cccc(/C=C2\C(=O)C(=O)c3ccccc32)c1 |  | inconclusive: 14.1 µM [inhibitor, partial curve, poor fit] |
| CC(C)(C)OC(=O)N1CCC(c2c(C(=O)N3CCN(C(=O)c4ccco4)CC3)cnn2-c2cccc(Cl)c2)CC1 |  | inconclusive: 28.2 µM [inhibitor, partial curve] |
| COc1ccc(-c2sc3ccccc3c2C#Cc2cncn2C)cc1 |  | inconclusive: 39.8 µM [inhibitor, single point] |
| COc1cccc2cc(C(=O)CS(=O)(=O)c3ccc(C)cc3)c(=O)oc12 |  | inconclusive: 31.6 µM [inhibitor, partial curve] |
| Nc1nc(CN2CCCCCC2)nc(Nc2ccc(F)cc2)n1 |  | inconclusive: 15.8 µM [inhibitor, full curve] |
| CN1C(=O)/C(=N\OC(=O)c2cccc3ccccc23)c2ccccc21 |  | inconclusive: 35.5 µM [inhibitor, partial curve] |
| Cc1c(OCC(=O)N[C@@H](Cc2ccccc2)C(=O)O)ccc2c1oc(=O)c1ccccc12 |  | inconclusive: 79.4 µM [inhibitor, partial curve] |
| CN1CCN(S(=O)(=O)c2ccc(Sc3nnnn3-c3ccccc3)c([N+](=O)[O-])c2)CC1 |  | inconclusive: 2.51 µM [inhibitor, full curve, poor fit] |
| NC1=NCC2c3ccccc3Cc3ccccc3N12 (stereo not given) |  | inconclusive: 31.6 µM [inhibitor, partial curve, poor fit] |
| CCc1ccc(OC(=O)CSc2nnc(-c3ccc(OC)c(OC)c3)o2)cc1 | inactive: 6.7% |  |
| O=C(Cn1cc(SCc2cccc(Cl)c2)c2ccccc21)N1CCCCC1 | inactive: 17% |  |
| O=C1Nc2ccc(S(=O)(=O)NCc3ccco3)c3cccc1c23 |  | active: 44.7 µM |
| CC1CCc2c(sc(NS(=O)(=O)c3ccccc3)c2C(=O)OC(C)C)C1 (stereo not given) | inactive: 3.83% |  |
| Cc1cccc(CN2CCC(n3nccc3NC(=O)CCCc3ccccc3)CC2)n1 |  | inconclusive: 89.1 µM [inhibitor, single point] |
| Cc1cccc(NC(=O)CCc2ccc(C)o2)c1 |  | inconclusive: 28.2 µM [inhibitor, partial curve, poor fit] |
| Cc1ccc(C)c(OCc2cc(C(=O)N3CCN(C(=O)c4ccco4)CC3)no2)c1 |  | inconclusive: 79.4 µM [inhibitor, single point] |
| N#CC1=C(N)C(C#N)(C#N)[C@H](c2c(F)cccc2F)[C@H]2CC3(CC=C12)OCCO3 |  | inconclusive: 12.6 µM [inhibitor, full curve, poor fit] |
| O=C1c2cccc3c(O)ccc(c23)C(=O)N1c1ccc(Cl)cc1 |  | inconclusive: 89.1 µM [inhibitor, partial curve, poor fit] |
| C1=Nc2ccccc2/C1=C/c1ccccc1 | inactive: 31.9% |  |
| CC(C)(C)n1ncc2c(=O)n(Cc3ccc(Cl)cc3C(F)(F)F)cnc21 | inactive: 1.48% |  |
| CC1(C)Oc2ccc3ccc(=O)oc3c2C(N2CCCCC2)C1O (stereo not given) |  | inconclusive: 56.2 µM [inhibitor, partial curve, poor fit] |

| Structure (SMILES) | activity change, negative = inhibition | Potency |
| --- | --- | --- |
| COC(=O)C1CCN(c2cc(=O)n(Cc3ccc(F)cc3)c(=O)[nH]2)CC1 |  | inconclusive: 3.55 µM [inhibitor, full curve, poor fit] |
| CNC(=S)Nc1cccc2[nH]ncc12 |  | inconclusive: 20 µM [inhibitor, full curve] |
| Cc1ccc(C(=O)N/C(=C/c2ccco2)C(=O)NCCCn2ccnc2)cc1 | inactive: -9.43% |  |
| COc1cc(OC)c(NS(=O)(=O)c2c(C)nc3sc(C)cn3c2=O)cc1Cl | inactive: 0.955% |  |
| COc1ccc(-c2cc(OC(=O)c3ccccc3Cl)c3c(C)oc(C)c3c(=O)c2)cc1OC |  | inconclusive: 70.8 µM [inhibitor, partial curve] |
| C=CC[n+]1c(-c2ccc(Cl)cc2Cl)csc1Nc1ccc(NC(C)=O)cc1 | inactive: -1% [at 57.1 µM] |  |
| CCC1CCCCN1CCCNC(=O)C(C)n1nc(C)c2sc3ccccc3c2c1=O (stereo not given) | inactive: 13% |  |
| Cc1ccc(C)c(S(=O)(=O)N2CCN(C(=O)/C=C/c3ccco3)CC2)c1 |  | active: 7.94 µM |
| COc1cccc(OCc2cc(C(=O)N(Cc3ccccc3)CC3CC3)no2)c1 | inactive: 35% |  |
| CCOC(=O)c1c(C)oc2ccc(O)c(CN3CCCCC3)c12 | inactive: 0.256% |  |
| O=C1c2cccc3c([N+](=O)[O-])ccc(c23)C(=O)N1O |  | inconclusive: 10 µM [inhibitor, partial curve, poor fit] |
| CC(=O)c1ccccc1NC(=O)COC(=O)C1=NN(c2ccccc2)C(=O)CC1 | inactive: 10.1% |  |
| CC1=NN(C(C#N)c2ccccc2)C(C)(C)C1 (stereo not given) | inactive: -1.71% |  |
| CCCS(=O)(=O)c1nc(S(=O)(=O)c2ccc(C)cc2)c(NCCCOC(C)C)s1 |  | inconclusive: 89.1 µM [inhibitor, partial curve, poor fit] |
| Cc1nn(-c2ccc(N3CCCCC3)nn2)c(C)c1CCC(=O)NCc1ccccc1 | inactive: 13.8% [at 57.1 µM] |  |
| Nc1ccc2c(c1)C/C(=C/c1ccco1)C2=O |  | active: 56.2 µM |
| COc1ccc(CCC(C)N2CCC(Oc3ccc(C(=O)N4CCCC4)cc3)CC2)cc1 (stereo not given) |  | inconclusive: 89.1 µM [inhibitor, single point] |
| COc1ccc(-c2nc3ccncc3[nH]2)cc1OC |  | inconclusive: 79.4 µM [inhibitor, single point] |
| CC(C)N(C(=S)Nc1ccc(S(=O)(=O)N2CCOCC2)cc1)c1ccccc1 |  | inconclusive: 20 µM [inhibitor, full curve] |
| CCN(C(=S)NC(=O)Cc1ccc(OC)cc1)c1ccccc1 | inactive: 16% |  |
| CCn1nnnc1SCC(=O)Nc1ccc(N(C)C)cc1 |  | inconclusive: 89.1 µM [inhibitor, partial curve, poor fit] |
| Cc1nnsc1C(=O)Oc1ccc(C#N)cc1 |  | inconclusive: 12.6 µM [inhibitor, full curve, poor fit] |

— PubChem BioAssay AID588453 (National Center for Advancing Translational Sciences (NCATS), 2011)
